{"source": "PubChem BioAssay AID463173", "about": "(ICCB-Longwood Screening Facility, Harvard Medical School, 2010)", "note": "The whole screen tested about 52,000 compounds, of which about 1,700 (3.3%) were called active. Rule as the data show it: active = survival mostly below about 52% (no sharp cut-off); inactive = mostly above about 56%. The list shows a part of the results.", "data": [{"system": "Wild type", "assay": "growth inhibition of S. aureus wild type versus tarO mutant, primary screen, teichoic acid synthesis inhibitors, RN4220, OD600 (AID 463173)", "details": "S. aureus RN4220 wild type/DeltatarO growth, OD600, 18 h, hits give low values, screened at 18.75 µg/mL (by protocol)", "values": [{"molecule": "Cc1cc(C)cc(-n2c(SCC(=O)Nc3ccccc3)nc3c(oc4ccccc43)c2=O)c1", "survival": "inactive: 128%"}, {"molecule": "O=Nc1c(O)n2c3c(cccc13)CCC2", "survival": "inactive: 124%"}, {"molecule": "COc1ccc2c(CNCc3cccs3)c(C(=O)O)n(Cc3ccc(F)cc3)c2c1", "survival": "inactive: 83%"}, {"molecule": "Cc1ccc(-n2nc3c(=O)n(C(C)C(=O)NCc4ccc(OC(C)C)cc4)nc(C)c3c2C)cc1", "note": "(configuration not stated)", "survival": "inactive: 93%"}, {"molecule": "O=C(NCc1ccc(Cl)cc1)C1CCN(S(=O)(=O)c2cccc3nonc23)CC1", "survival": "inactive: 111%"}, {"molecule": "CCC(Cc1ccccc1)NC(=O)Cn1nc(C)n2c(cc3occc32)c1=O", "note": "(configuration not stated)", "survival": "inactive: 79%"}, {"molecule": "CC(C)Cn1cc(NC(=O)N2CCN(c3ccc(F)cc3)CC2)c2ccccc2c1=O", "survival": "inactive: 73%"}, {"molecule": "CC(=O)c1ccc(NC(=O)CSC2=Nc3ccccc3N=C(c3ccc(F)cc3)C2)cc1", "survival": "inactive: 72%"}, {"molecule": "CCCCn1c(=O)n(CC2CCC(C(=O)NCCCOC)CC2)c(=O)c2sccc21", "note": "(configuration not stated)", "survival": "inactive: 92%"}, {"molecule": "COc1cc(OC)cc(-c2nc3nc(C)c(CCC(=O)Nc4cc(C)cc(C)c4)c(C)n3n2)c1", "survival": "inactive: 93%"}, {"molecule": "Cc1cc(=O)[nH]c2nnc(SCc3ccc(Cl)cc3Cl)n12", "survival": "inactive: 124%"}, {"molecule": "O=C(N/N=C/c1ccc[nH]1)c1ccccc1O", "survival": "inactive: 107%"}, {"molecule": "CC(=O)c1cccc(NC(=O)c2sc(-n3nc(C)c(Cc4ccccc4)c3C)nc2C)c1", "survival": "inactive: 72%"}, {"molecule": "CCCS(=O)(=O)N1CC(=O)N(c2cccc(Cl)c2)C(C)(C(=O)NC2CCCCC2)C1", "note": "(configuration not stated)", "survival": "inactive: 73%"}, {"molecule": "CCCCN(C)CC(O)Cn1cc(/C=C/C(=O)c2ccc(Br)cc2)c2ccccc21", "note": "(configuration not stated)", "survival": "active: 15%"}, {"molecule": "COCCNC(=O)c1ccc2c(c1)N(Cc1cc(C)ccc1C)C(=O)c1ccccc1S2=O", "note": "(configuration not stated)", "survival": "inactive: 93%"}, {"molecule": "Cc1ccc2nc(COc3cccc(NC(=O)Nc4ccc(C)c(Cl)c4)c3)cc(=O)n2c1", "survival": "inactive: 19%"}, {"molecule": "COc1cccc(-c2cc(C(=O)NCCc3ccc(OC)c(OC)c3)no2)c1", "survival": "inactive: 156%"}, {"molecule": "O=C(Cn1c(SCc2ccc(F)cc2)nc2cccnc21)Nc1ccccc1F", "survival": "inactive: 75%"}, {"molecule": "Cc1ccc2c(CNC3CCCCC3)c(C(=O)O)n(Cc3ccc(F)cc3)c2c1", "survival": "inactive: 91%"}, {"molecule": "COc1cccc2cc(-c3nc(-c4ccccc4F)no3)c(=O)oc12", "survival": "inactive: 106%"}, {"molecule": "Cc1c(C=Nc2ccc(Cl)cc2)c(O)n(C)c(=O)c1C#N", "survival": "inactive: 110%"}, {"molecule": "N#CC(C#N)=C(N)/C(C#N)=C/c1cccs1", "survival": "inactive: 124%"}, {"molecule": "O=C(Nc1ccc(F)c(Cl)c1)c1ccc2c(Cl)c3c(nc2c1)CCCC3", "survival": "inactive: 130%"}, {"molecule": "CCOc1ccccc1CNC(=O)c1cc2c(=O)n(Cc3cccnc3)ccc2nc1C", "survival": "inactive: 88%"}, {"molecule": "CCc1cccc(NC(=O)Cn2c(C(=O)OC)cc3sc(Cl)cc32)c1", "survival": "inactive: 80%"}, {"molecule": "O=C(Cn1nnc(-c2cccs2)n1)N1c2ccccc2CCc2ccccc21", "survival": "inactive: 103%"}, {"molecule": "Cc1ccc(-n2c(SCc3ccccc3F)nc3[nH]ncc3c2=O)cc1Cl", "survival": "inactive: 77%"}, {"molecule": "COc1ccc(NC(=O)CN2CCC(c3nc4ccc(Cl)cc4[nH]3)CC2)c(OC)c1", "survival": "inactive: 116%"}, {"molecule": "CCN(CC)CCNC(=O)C1CCN(C(=O)c2cnn(-c3ccccc3)c2-n2cccc2)CC1", "survival": "inactive: 88%"}, {"molecule": "O=C(CN1C2=NCCN2c2ccccc21)c1ccc(O)cc1", "survival": "inactive: 87%"}, {"molecule": "O=C(NCc1ccccc1)C1CCN(S(=O)(=O)Cc2ccccc2)CC1", "survival": "inactive: 109%"}, {"molecule": "CCOC(=O)N1CCc2c(sc3c2C(=O)NC(c2ccc(N(C)C)cc2)N3)C1", "note": "(configuration not stated)", "survival": "inactive: 70%"}, {"molecule": "Cc1ccc2nc(NC(=O)CSc3[nH]c(=O)ncc3C)sc2c1", "survival": "inactive: 124%"}, {"molecule": "CC1CCN(C(=O)CN(CCc2ccccc2)S(C)(=O)=O)CC1", "survival": "inactive: 114%"}, {"molecule": "Cc1ccc(NC(=O)CSc2nc(=O)cc(N)n2-c2ccccc2)cc1", "survival": "inactive: 90%"}, {"molecule": "CC(=O)NCCNC(=O)CCCn1c(=O)[nH]c2ccsc2c1=O", "survival": "inactive: 57%"}, {"molecule": "CCCCOc1ccc(C2c3c(oc4ccc(C)cc4c3=O)C(=O)N2CCCN(C)C)cc1OCC", "note": "(configuration not stated)", "survival": "inactive: 73%"}, {"molecule": "Cc1ccc(-n2c(/C=C/c3c(C)n(C)c4ccccc34)nc3ccccc3c2=O)cc1", "survival": "inactive: 76%"}, {"molecule": "Cc1ccc(C)c(NS(=O)(=O)c2cc3c(cc2C)n(C)c(=O)c(=O)n3C)c1", "survival": "inactive: 75%"}, {"molecule": "CCN(CC)S(=O)(=O)c1cccc(C(=O)Nc2ccccc2C(=O)Nc2ccc(Cl)cc2)c1", "survival": "inactive: 51%"}, {"molecule": "CC(=O)c1ccc(NC(=O)c2cc(C)nn2-c2ccccc2)cc1", "survival": "inactive: 71%"}, {"molecule": "COCCN(CCOC)S(=O)(=O)c1ccc(C(=O)Nc2sc3c(c2C(=O)OC)CCN(C)C3)cc1", "survival": "inactive: 92%"}, {"molecule": "CCOC(=O)c1c(NC(=O)Cc2coc3cc(C)cc(C)c23)sc2c1CCC2", "survival": "inactive: 102%"}, {"molecule": "CCOC(=O)c1ccccc1NC(=O)c1sc2nc3n(c(=O)c2c1C)CCCCC3", "survival": "inactive: 77%"}, {"molecule": "CN(C)S(=O)(=O)N(CC(=O)NCCSCc1c(F)cccc1Cl)c1ccccc1", "survival": "inactive: 71%"}, {"molecule": "CN(C)c1ncnc2c1ncn2C1OC(CO)C(O)C1O", "note": "(configuration not stated)", "survival": "inactive: 102%"}, {"molecule": "COC(=O)c1c(NC(C)=O)c2c3c(sc2n1Cc1cc(C)ccc1C)CCCC3", "survival": "inactive: 80%"}, {"molecule": "Cc1ccc(NC(=O)c2cc(S(=O)(=O)N3CCC4(CC3)OCCO4)ccc2F)cc1Cl", "survival": "inactive: 87%"}, {"molecule": "CCCCN(CCCNC(=O)c1cc(Nc2cccc(SC)c2)nc2ccccc12)Cc1ccccc1", "survival": "inactive: 86%"}, {"molecule": "Cc1ccc(S(=O)(=O)N2CCC(N3CCN(Cc4ccccc4)C(=O)C3=O)CC2)cc1C", "survival": "inactive: 71%"}, {"molecule": "Cc1cccc(-n2c(C)cc(C(=O)C(=O)Nc3ccccc3F)c2C)c1C", "survival": "inactive: 82%"}, {"molecule": "CCCN1CCN(CCCNC(=O)c2cc3c(=O)n(CC)c4ccccc4c3s2)CC1", "survival": "inactive: 85%"}, {"molecule": "O=c1[nH]c(SCc2c(F)cccc2Cl)nc2c1CCC2", "survival": "inactive: 88%"}, {"molecule": "CCn1c(SCC(=O)OC2CCCCC2)nnc1-c1ccc(OC)cc1", "survival": "inactive: 113%"}, {"molecule": "CCOc1ccc(-c2cccc(NS(=O)(=O)c3ccc(F)cc3F)c2)nn1", "survival": "inactive: 73%"}, {"molecule": "COc1ccc(-c2noc(CNC(=O)c3ccccc3Br)n2)cc1", "survival": "inactive: 82%"}]}]}
